Assay results taken from PubChem BioAssay AID624417 (National Center for Advancing Translational Sciences (NCATS), 2012).
Among all 410,000 compounds or so, about 6,400 (1.6%) were called active. The inconclusive results got no clear call from the source; some entries with a clear call stand among them for comparison. The call rests on the fitted dose curve; in most records, active means well fitted inhibition curve with a large enough effect; inconclusive means small, poorly fitted or top-dose-only effect; inactive means no such curve, though single readings can be large or run the other way. Potencies beside an inconclusive call are fits to weak or partial responses and may not hold up.

Biological target: Glucagon-like peptide 1 receptor (Homo sapiens) (UniProt P43220)
Chain of UniProt P43220 (P43220 whole entry, looked up): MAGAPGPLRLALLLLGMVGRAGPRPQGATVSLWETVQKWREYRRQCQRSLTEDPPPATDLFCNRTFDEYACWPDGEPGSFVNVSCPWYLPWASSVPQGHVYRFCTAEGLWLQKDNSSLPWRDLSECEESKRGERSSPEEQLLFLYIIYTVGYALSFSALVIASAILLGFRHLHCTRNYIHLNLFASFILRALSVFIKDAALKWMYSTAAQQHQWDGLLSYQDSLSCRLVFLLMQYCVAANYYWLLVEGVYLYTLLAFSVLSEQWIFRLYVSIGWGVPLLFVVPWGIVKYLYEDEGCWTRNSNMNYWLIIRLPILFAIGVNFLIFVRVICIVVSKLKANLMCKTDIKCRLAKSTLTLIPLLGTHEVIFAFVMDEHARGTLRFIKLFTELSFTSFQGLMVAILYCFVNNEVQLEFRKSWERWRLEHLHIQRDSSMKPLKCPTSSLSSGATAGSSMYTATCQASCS
Assay: qHTS of GLP-1 Receptor Inverse Agonists (Inhibition Mode); further: nearly all actives have a fitted effect of over 55% in size
Details: HEK293 GLP-1R CRE-luciferase, luminescence, 24 h, GLP-1R form is constitutively active; activity change, negative = inhibition: at 38.3 µM (top of the series) unless noted
Procedure, shortened: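 Inverse agonists were sought by their lowering of basal cAMP reporter luciferase output in HEK293 cells stably carrying constitutively active human GLP-1R, after 24 h compound treatment.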
On the % scale 0 is the no-effect control and ±100 the full control effect; potency means the concentration at half of the fitted maximal effect; tags describe the fitted curve by direction and shape.

Potency, active:
COc1ccc(NC(=S)NCCSc2ccc(C)cc2)c(OC)c1 10 µM
COc1cc(CN(C2CC2)S(=O)(=O)c2ccccc2Br)cc(OC)c1 10 µM
CC/C(=N\NC(=O)c1nnn(-c2nonc2N)c1-c1cccs1)c1ccccc1 7.94 µM

Potency, inconclusive:
CCN(CC)C(=O)[C@H]1C[C@H](CC(=O)NCc2ccco2)C(=O)N2CCc3c([nH]c4cc(-c5ccco5)ccc34)[C@]12C 10 µM [inhibitor, single point]
CC(C)c1ccc(S(=O)(=O)N2CCN(CC(O)CN3CCOCC3)CC2)cc1 (configuration not stated) 5.62 µM [inhibitor, partial curve]
COc1ccccc1NC(=O)CSc1ccc(-c2ccccn2)nn1 28.2 µM [inhibitor, single point]
COc1ccc(Cl)cc1NC(=O)CN(C)C(=O)C1CC(=O)N(Cc2ccc(C)cc2)C1 (configuration not stated) 11.2 µM [inhibitor, single point]
CC(/C=C/c1ccccc1)=N\NC(=O)c1cc(C)[nH]n1 22.4 µM [inhibitor, single point]
Cc1cccc(N2CCN(C(=O)c3cccc(N4C(=O)C5C6C=CC(C6)C5C4=O)c3)CC2C)c1 (configuration not stated) 12.6 µM [inhibitor, partial curve, poor fit]
COc1ccc(S(=O)(=O)Cc2ccc(C(=O)N3CCN(c4cccc(C)c4C)CC3)o2)cc1 7.94 µM [inhibitor, partial curve, poor fit]
Cc1ccc(-c2nc3ccccc3c(C(=O)NCc3cccs3)c2C)cc1 7.08 µM [inhibitor, partial curve, poor fit]
O=C(OC1CO[C@H]2O[C@@H]1[C@H](OC(=O)c1ccccc1)[C@H]2OC(=O)c1ccccc1)c1ccccc1 (some centres not stated) 6.31 µM [inhibitor, partial curve]
Cc1cc(OC(C)C(=O)N2CCC(c3nc4ccccc4o3)CC2)ccc1Cl (configuration not stated) 28.2 µM [inhibitor, single point]
CCOC(=O)[C@H]1[C@H]2COc3ccc(C)cc3[C@@H]2N2C(=O)c3cc(F)ccc3NC(=O)[C@@]12C 31.6 µM [inhibitor, single point]
COc1cccc(C=C(C(C)=O)C(=O)c2ccccc2)c1 10 µM [inhibitor, partial curve, poor fit]
COC(=O)c1ccc(Nc2nc(-c3ccccc3Cl)nc3ccccc23)cc1 22.4 µM [inhibitor, single point]
O=C(Nc1ccccc1Oc1cccnc1)C1CCCN(Cc2ccccc2O)C1 (configuration not stated) 22.4 µM [inhibitor, single point]
O=C(NCc1cccnc1)c1cc(-c2ccc(Cl)cc2)oc1C(F)(F)F 10 µM [inhibitor, partial curve, poor fit]
O=C1c2cc(Cl)ccc2-c2c(O)cc(Cl)cc21 5.62 µM [inhibitor, full curve, poor fit]
c1ccc(-c2c[nH]c3[n+]2CCCCC3)cc1 15.8 µM [inhibitor, partial curve, poor fit]
COc1ccc2nc(NC(=O)C3CCN(S(=O)(=O)c4cccc5nsnc45)CC3)sc2c1 7.94 µM [inhibitor, partial curve, poor fit]
C=CCOc1c(Br)cc(CNCCCN2CCOCC2)cc1OC 31.6 µM [inhibitor, single point]
CC1CCN(C(=O)Cn2nnc(-c3ccc(C(C)C)cc3)n2)CC1 28.2 µM [inhibitor, single point]
Cc1ccc(NS(=O)(=O)c2ccc(OCC(=O)NCc3ccco3)cc2)cc1 15.8 µM [inhibitor, single point]
O=C(NCc1ccc(Cl)cc1)c1ccc(CS(=O)Cc2cccc(Cl)c2)o1 (configuration not stated) 11.2 µM [inhibitor, partial curve]
Cc1cc(C)cc(NC(=O)C(NCC2CCCO2)c2ccccc2)c1 (configuration not stated) 10 µM [inhibitor, single point]
Cc1ccc(C(OC(=O)c2ccco2)C(=O)NC2CCCC2)cc1 (configuration not stated) 7.94 µM [inhibitor, partial curve, poor fit]
Cc1ccc(C)c(OCC(=O)Nc2ccc(S(=O)(=O)N3CCN(C)CC3)cc2)c1 11.2 µM [inhibitor, partial curve, poor fit]
CC1CCCC(C)N1C(=O)CN1C(=O)NC2(CCOc3ccccc32)C1=O (configuration not stated) 17.8 µM [inhibitor, partial curve, poor fit]
O=C(CCCN1C(=O)/C(=C\c2cccs2)SC1=S)Nc1ccccc1O 7.94 µM [inhibitor, partial curve, poor fit]
Cc1c(Cl)cccc1NC(=S)/C(=C(\[O-])c1ccc(Cl)s1)[n+]1ccccc1 11.2 µM [inhibitor, partial curve]
O=S(=O)(/N=C(/Nc1cccc2ccccc12)c1ccccc1)c1ccccc1 5.62 µM [inhibitor, full curve, poor fit]
COC(=O)C1=C(C(=O)OC)[C@]2([C@H]3CCCCN[C@@H](Cc4ccccc4)C(=O)N3Cc3ccccc3)C=C[C@H]1O2 3.98 µM [inhibitor, full curve]
CC(C)[C@@H](C(=O)NC1CCCC1)N1C(=O)N2CCc3c([nH]c4ccccc34)[C@@]2(C)C1=O 28.2 µM [inhibitor, single point]
COc1ccc(N2CCN(C3(c4ccccc4)C(=O)c4ccccc4C3=O)CC2)cc1 28.2 µM [inhibitor, single point]
O=C(CCS(=O)(=O)c1ccc(F)cc1)Nc1nc(-c2ccccn2)cs1 8.91 µM [inhibitor, partial curve, poor fit]
COc1ccc(C(=O)N2CCCCC2c2cc(C(=O)Nc3cccc(C#N)c3)no2)cc1 (configuration not stated) 10 µM [inhibitor, single point]
OC(CNCC1CCCO1)Cn1c2ccc(Cl)cc2c2cc(Cl)ccc21 (configuration not stated) 28.2 µM [inhibitor, single point]
CCC(C)Nc1ccc(NC(C)CC)cc1 (configuration not stated) 6.31 µM [inhibitor, partial curve]
CCCSc1ncc(Cl)c(C(=O)N2CCN(c3cccc(Cl)c3)CC2)n1 28.2 µM [inhibitor, single point]
O=C(CN(Cc1ccc(Cl)cc1)C(=O)c1csnn1)NCc1ccccc1 11.2 µM [inhibitor, single point]
COC(=O)C1=CN(C)C=C(C(=O)OC)C1c1ccccc1Cl 31.6 µM [inhibitor, single point]
CC(Sc1nc(-c2ccccc2)cs1)C(=O)Nc1ccc(Cl)cn1 (configuration not stated) 12.6 µM [inhibitor, single point]
Cc1ccccc1-n1cnc2c(sc3nc(N4CCOCC4)c4c(c32)CCCC4)c1=O 10 µM [inhibitor, partial curve, poor fit]
O=C(NCc1ccncc1)C(=O)NCC(c1ccco1)N1CCN(c2ccccc2)CC1 (configuration not stated) 2.82 µM [inhibitor, partial curve]
O=C(CNCc1ccco1)Nc1ccc(Oc2ccccc2)cc1 11.2 µM [inhibitor, single point]
Cc1ccccc1OCCOCCN1CCCCCC1 8.91 µM [inhibitor, partial curve]
CCOC(=O)c1cc2cc(OCc3ccccc3)ccc2nc1C 14.1 µM [inhibitor, single point]
O=C1[C@@H]2Cc3c([nH]c4ccccc34)C(c3ccccc3)N2C(=O)CN1CCO (some centres not stated) 5.62 µM [inhibitor, partial curve]
Nc1nc2nc(-c3ccccc3)cc(C(F)(F)F)c2s1 28.2 µM [inhibitor, single point]
c1ccc(N2CC3COc4ccccc4C3=N2)cc1 (configuration not stated) 31.6 µM [inhibitor, partial curve, poor fit]
CCc1cccc(NC(=O)CSc2nc3ccccc3nc2N2CCCCC2)c1 0.355 µM [inhibitor, full curve, poor fit]

Activity change, negative = inhibition, inactive:
CCC(C(=O)O)n1nc(-c2ccccc2)c2cc(Cl)ccc21 (configuration not stated) -25.9%
COc1ccc(S(=O)(=O)N2CCC(N3CCN(c4ccccc4OC)CC3)CC2)cc1 -13.1%
CCCCN(C(=O)c1ccc(S(=O)(=O)N(C)c2ccccc2)cc1)c1c(N)n(CCC)c(=O)[nH]c1=O 0.171%
Cc1cccc(C(=O)Nc2cc3nn(-c4ccc(C(C)C)cc4)nc3cc2C)c1 3.2%
CCCCc1ccc(-c2csc(/C(C#N)=C\c3ccco3)n2)cc1 59.8%
Cc1ccc(Cn2c(CO)cnc2SCC(=O)NCc2ccccc2Cl)cc1 -23.3%
Fc1cc(F)cc(NC(=S)Nc2ccccc2N2CCOCC2)c1 -3.93%
O=C(CSc1nnc(NC2CCCCC2)s1)NC1CCS(=O)(=O)C1 (configuration not stated) 0%
Oc1cc2c(cc1C(c1ccc(Cl)c(Cl)c1)N1CCCC1)OCO2 (configuration not stated) -29.1%
COC(=O)c1ccc2c(=O)n(CCCCCC(=O)N3CCN(c4cc(C)ccc4C)CC3)c(=O)[nH]c2c1 37.9%
